Among all 150,000 compounds or so, about 180 (0.12%) were called active. Inconclusive results, whose numbers are uncertain, are shown with a selection of clear calls. The call rests on the fitted dose curve; in most records, active means well fitted cell-killing curve with a large enough effect; inconclusive means small, poorly fitted or top-dose-only effect, or effect the other way; inactive means flat fitted curve, though single readings scatter. Potencies of inconclusive entries are doubtful fits and often do not repeat.
Assay: GF-AFC viability counterscreen for inhibitors of alpha-synuclein gene (SNCA) expression; further: nearly all actives have a fitted effect of over 30% in size
Settings: HEK-293-SNCA-luc viability, GF-AFC fluorescence, 24 h; activity change, negative = cytotoxicity: at 57.1 µM (top of the series) unless noted
Text: Assay Submitter (PI): Daniel R. Scoles Ph.D.
Department of Neurology, University of Utah, Salt Lake City, Utah
Accumulation of alpha-synuclein is a main underlying pathological feature of Parkinson's disease (PD) and alpha-synucleinopathies, for which lowering expression of the alpha-synuclein gene (SNCA) is a potential therapeutic avenue. Using a cell-based luciferase reporter of SNCA expression we performed a quantitative high throughput screen (qHTS) of 155,885 compounds in dose response. The screening assay was generated using genome editing to insert the luciferase gene downstream and in frame of the SNCA gene in HEK-293 cells (1). A viability counterscreen using GF-AFC was used to eliminate cytotoxic and false positive compounds. After in silico analysis (clustering, removal of frequent hitter nuisance chemotypes), inhibitor compounds from the primary screen were selected for follow up and re-tested at 11-doses in the SNCA-luc cells (luciferase and GF-AFC confirmation), and in CMV-luc expressing cell line to flag general transcriptional repressors.
Described herein are the results of the GF-AFC viability counterscreen for SNCA inhibitors; inactivity (no decrease in fluorescence signal, not cytotoxic) is the desired output for this assay.
1. Dansithong, W., Paul, S., Scoles, D. R., Pulst, S. M., and Huynh, D. P. (2015) Generation of SNCA Cell Models Using Zinc Finger Nuclease (ZFN) Technology for Efficient High-Throughput Drug Screening. PLoS ONE 10, e0136930.
SEQUENCE No. (e.g., 1, 2, 3, etc.); […] (e.g., Cells, Incubation, Reagent, etc.); VALUE; DESCRIPTION
1; Cells; 4 uL; Dispense 1500 HEK-293-SNCA-luc cells/well into Greiner 1536-well white / solid bottom tissue culture treated plate. The plate was covered with metal lids with gas-exchange holes.
2; Incubate; 24 hours; Incubate at 37C, 5% CO2, 95% RH.
3; Compounds; 23 nL; Compounds and controls were transferred via a Kalypsys Pin Tool (Wako USA) equipped with a 1536-slotted pin array. The plate was covered with metal lids with gas-exchange holes.
4; Incubate; 24 hours; Incubate at 37C, 5% CO2, 95% RH.
5; Dispense; 1 uL; Dispense Gly-Phe-7-amino-4-trifluoromethylcoumarin (GF-AFC, prepared at 125 uM in PBS) was added. The plate was covered with metal lids with gas-exchange holes.
6; Incubate; 30 min; Incubate at 37C, 5% CO2.
7; Detector; Fluorescence; Measure fluorescence with ViewLux microplate reader (PerkinElmer) equipped with 405/10 excitation and 540/25 emission filters.
8; Dispense; 3 uL; Dispense ONE-Glo ([…]) lucifase detection reagent was added to each well. Plates were covered with metal lids with gas-exchange holes.
9; Incubate; 15 min; Incubate at room temperature.
10; Detector; Luminescence; Measure luminescence with ViewLux microplate reader (PerkinElmer) equipped with clear filters.
NOTES (numbers refer to sequence above)
1; HEK-293-SNCA-luc were cultured and suspended in phenol-red free DMEM (4.5 g/L glucose, 25 mM HEPES, cat #21063 (Thermo)).
3; Compounds were added to the assay plate in an 11-point intra plate dose response, 1:3 titration in DMSO with a final concentration range of […]. Vehicle-only plates, with DMSO being pin-transferred to every well, were inserted at the beginning of screening runs to confirm expected assay performance. Activity was normalized to wells containing medium only (-100% activity, full inhibition) and SNCA-luc cells treated with DMSO vehicle control (0% activity), contained on the same plate as test samples.
10; Signals were analyzed, and dose-response curves were fit using the Hill equation. Compounds in curve classes -1.1, -1.2, -2.1, -2.2 in the SNCA-luc assay were considered active. Compounds were eliminated from further consideration if also active (curve class -1.1, -1.2, -1.3, -1.4, -2.1, -2.2, -2.3, -2.4) in the GF-AFC cytotoxicity assay.
Potency means the concentration at half of the fitted maximal effect; tags describe the fitted curve by direction and shape.

Compound | Potency | activity change, negative = cytotoxicity
CN(C)[C@@H]1CN(C(=O)Cc2ccc(F)cc2)C[C@H]1CO | inconclusive: 3.98 µM [cytotoxic, single point] | –
Oc1ccc2c3c1O[C@H]1[C@H](N(CCCl)CCCl)CC[C@@]4(O)[C@@H](C2)N(CC2CC2)CC[C@]314 | inconclusive: 0.97 µM [cytotoxic, single point] | –
COc1cc2c(cc1OCC1CC1)NC(=O)C21CCN(c2nc(C)cnc2C)CC1 | inactive | –
COc1ccc(-c2cc([C@H]3CN4CC[C@H]3C[C@@H]4CN)nc(C)n2)cc1OC | inconclusive: 31.6 µM [cytotoxic, single point] | –
COc1cc2c(cc1OCc1ccncc1)NC(=O)C21CCN(c2ccccn2)CC1 | inactive | –
Cn1nc(-c2ccc3ccccc3c2)cc1[C@H]1CN2CC[C@H]1C[C@@H]2CNC(=O)NCc1ccccc1 | inconclusive: 22.4 µM [cytotoxic, single point] | –
Cc1nc(-c2cccs2)cc([C@H]2CN3CC[C@H]2C[C@@H]3CNC(=O)Nc2cccc(C(F)(F)F)c2)n1 | inactive | –
COC1=CC(C)=C[C@@H](C)[C@@H](O)[C@@H](C)CC(C)=CC=C[C@H](OC)[C@H]([C@@H](C)[C@@H](O)[C@H](C)[C@@]2(O)C[C@@H](O)[C@H](C)[C@@H](C(C)C)O2)OC1=O | inconclusive: 0.0121 µM [cytotoxic, full curve, poor fit] | –
C[C@@H]1O[C@@H](O[C@H]2CC[C@@]3(C)C(CC[C@@H]4C3CC[C@]3(C)[C@@H](C5=CC(=O)OC5)CC[C@]43O)C2)[C@H](O[C@@H]2O[C@H](CO)[C@@H](O)[C@H](O)[C@H]2O)[C@H](O)[C@H]1O (some centres not stated) | inconclusive: 1.26 µM [cytotoxic, full curve] | –
O=c1c(-c2cccs2)ccc2n1C[C@H]1C[C@@H]2CN(C2CCOCC2)C1 | inconclusive: 31.6 µM [rising, single point] | –
CN(C)c1ccc(C(=O)NC[C@H]2C[C@@H]3CCN2C[C@@H]3c2cc(C3CCCCC3)nn2C)cc1 | inactive | –
COc1ccc(Br)cc1C1SCC(=O)Nc2c1c(C)nn2-c1ccccc1C (configuration not stated) | inconclusive: 25.1 µM [cytotoxic, single point] | –
CCCNC(=O)OC[C@H]1C[C@@H]2CCN1C[C@@H]2c1cc(-c2cccs2)nc(C)n1 | inactive | –
O=C(O)C1=NOC2CN(CC3CCNC3)CC12 (configuration not stated) | inactive | –
O=C1NCc2ccccc2CC12CCCN2Cc1ccnc(Cl)c1 (configuration not stated) | inconclusive: 35.5 µM [cytotoxic, partial curve, poor fit] | –
CC(=O)OC[C@]12C[C@H](O)C(C)=C[C@H]1O[C@@H]1[C@H](O)[C@@H](OC(C)=O)[C@@]2(C)[C@]12CO2 | inconclusive: 0.0117 µM [cytotoxic, full curve] | –
CC[C@H]1CN2CC[C@H]1C[C@@H]2CNCc1ccc(-c2ccccc2)cc1 | inconclusive: 35.5 µM [cytotoxic, partial curve, poor fit] | –
CC[C@H]1CN2CC[C@H]1C[C@@H]2COC(=O)Nc1cc(OC)cc(OC)c1 | inactive | –
C[C@H](CN1CCOCC1)C(C(=O)N1CCCC1)(c1ccccc1)c1ccccc1 | inactive | –

Compound | Potency | activity change, negative = cytotoxicity
Cc1noc(C)c1C(=O)N1C2CCC1CN(C(C)C)C2 | inactive | –
COc1cc2c(cc1CCc1ccccc1)N([S+](=O)([O-])c1ccc3c(c1)CCO3)CC21CCN(C(C)=O)CC1 | inactive | –
COc1cc2c(cc1OCC1CC1)NC(=O)C21CCN(c2nccs2)CC1 | inconclusive: 31.6 µM [cytotoxic, single point] | –
C[C@H]1CN(Cc2ccc(CC(=O)N3CCC(Nc4cccc(F)c4)CC3)cc2)CCN1 | inconclusive: 5.97 µM [cytotoxic, partial curve, poor fit] | –
CN1CCC[C@@H]1Cc1c[nH]c2ccc(Nc3ncccc3[N+](=O)[O-])cc12 | inactive | –
COc1cc2c(cc1OCc1ccccc1)N(C(=O)COc1ccccc1)CC21CCN(C)CC1 | inconclusive: 39.8 µM [cytotoxic, single point] | –
COc1cc2c(cc1OCC1CC1)NC(=O)C21CCN(c2nccc(C(F)(F)F)n2)CC1 | inactive | –
CO[C@H]1C[C@H](O[C@H]2CC[C@@]3(C)C(=CCC4C3CC[C@]3(C)[C@@H](C5=CC(=O)OC5)CC[C@]43O)C2)O[C@@H](C)[C@@H]1O[C@@H]1O[C@H](CO[C@@H]2O[C@H](CO)[C@@H](O)[C@H](O)[C@H]2O)[C@@H](O)[C@H](O)[C@H]1O (some centres not stated) | – | inactive: -1.77% [at 12.5 µM]
COC1CC(OC2CCC3(C=O)C(CCC4C3CCC3(C)C(C5=CC(=O)OC5)CCC43O)C2)OC(C)C1O (configuration not stated) | inconclusive: 0.733 µM [cytotoxic, full curve, poor fit] | –
CC(C)Cc1nc2cccnc2n1C1CCNCC1 | inactive | –
COc1cccc([C@H]2CN(c3cc(C)nc(N)n3)[C@@H]3C4CCN(CC4)[C@H]23)c1 | inconclusive: 12.6 µM [cytotoxic, partial curve, poor fit] | –
CN1CCc2c([nH]c3ccccc23)C12CCNCC2 | – | inactive: 8.16% [at 12.5 µM]
CC(=O)OC[C@]12C[C@H](OC(=O)CC(C)C)C(C)=C[C@H]1O[C@@H]1[C@H](O)[C@@H](OC(C)=O)[C@@]2(C)[C@@]12CO2 | inconclusive: 0.0653 µM [cytotoxic, full curve] | –
CC1=C2[C@H]3OC(=O)[C@@H](C)[C@@H]3CC[C@@]2(C)C=CC1=O | inconclusive: 1.58 µM [rising, partial curve, poor fit] | –
COc1cc2c(cc1Oc1ccccc1)NC(=O)C21CCN(Cc2ccccn2)CC1 | inconclusive: 28.2 µM [cytotoxic, partial curve, poor fit] | –
O=C(c1ccncc1)N1C[C@@H]2C[C@H](C1)c1ccc(-c3cccc(C(F)(F)F)c3)c(=O)n1C2 | inactive | –
CN1CC[C@@]2(C)c3cc(O)ccc3N(C)C12 (some centres not stated) | inconclusive: 25.1 µM [cytotoxic, single point] | –
CCOC(=O)[C@H]1CN(C(=O)c2ccc(SC)cc2)[C@]2(C)C(=O)N(CC3CC3)c3ccccc3[C@H]12 | inconclusive: 11.2 µM [cytotoxic, single point] | –

From PubChem BioAssay AID1671193 (National Center for Advancing Translational Sciences (NCATS), 2021)
